Measurements from patent publication US20240173442A1, “COMBINATION THERAPY” (Hoffmann-La Roche Inc., priority 2021, published 2024).

T1: carcinoembryonic antigen (CEA) (human), P06731
T1 chain: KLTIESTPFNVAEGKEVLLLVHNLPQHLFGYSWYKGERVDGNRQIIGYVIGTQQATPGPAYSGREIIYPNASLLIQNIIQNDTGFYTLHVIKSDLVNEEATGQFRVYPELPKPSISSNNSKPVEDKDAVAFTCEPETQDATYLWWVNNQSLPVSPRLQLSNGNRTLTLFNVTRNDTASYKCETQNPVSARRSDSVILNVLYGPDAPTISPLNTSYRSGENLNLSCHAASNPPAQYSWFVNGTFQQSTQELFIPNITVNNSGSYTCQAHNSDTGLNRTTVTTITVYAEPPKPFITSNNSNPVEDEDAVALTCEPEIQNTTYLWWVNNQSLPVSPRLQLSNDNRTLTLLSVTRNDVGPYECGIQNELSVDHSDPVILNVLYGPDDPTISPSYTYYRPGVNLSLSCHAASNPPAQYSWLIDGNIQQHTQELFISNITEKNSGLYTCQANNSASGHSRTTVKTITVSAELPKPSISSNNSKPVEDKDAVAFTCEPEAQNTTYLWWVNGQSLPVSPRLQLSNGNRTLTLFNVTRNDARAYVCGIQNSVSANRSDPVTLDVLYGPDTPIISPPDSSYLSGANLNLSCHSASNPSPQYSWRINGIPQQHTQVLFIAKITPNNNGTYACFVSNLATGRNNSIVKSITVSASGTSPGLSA


Columns and labels:
[1] = molecular target: T1, carcinoembryonic antigen (CEA) (human), …; experiment: FACS on MKN45 cells (CEA), both hemibodies mixed 1:1, detected with anti-human IgG(H+L) secondary (legend box: FITC; title: A488)
[2] = molecular target: T1, carcinoembryonic antigen (CEA) (human), …; experiment: FACS on MKN-45 cells, both hemibodies added together, detection with anti-huIgG(H+L)-Alexa488

Row | Binder | EC50 (read off the curve) (µg/ml each Ab) [1] | EC50 [2] [µg/mL]
1 | P1AD8749 + P1AD8592 (1:1 mixture of both hemibodies) (protein) heavy 1: QVQLVQSGAEVKKPGASVKVSCKASGYTFTEFGMNWVRQAPGQGLEWMGWINTKTGEATYVEEFKGRVTFTTDTSTSTAYMELRSLRSDDTAVYYCARWDFAYYVEAMDYWGQGTTVTVSSASTKGPSVFPLAPSSKSTSGGTAALGCLVKDYFPEPVTVSWNSGALTSGVHTFPAVLQSSGLYSLSSVVTVPSSSLGTQTYICNVNHKPSNTKVDKKVEPKSCDKTHTCPPCPAPEAAGGPSVFLFPPKPKDTLMISRTPEVTCVVVDVSHEDPEVKFNWYVDGVEVHNAKTKPREEQYNSTYRVVSVLTVLHQDWLNGKEYKCKVSNKALGAPIEKTISKAKGQPREPQVCTLPPSRDELTKNQVSLSCAVKGFYPSDIAVEWESNGQPENNYKTTPPVLDSDGSFFLVSKLTVDKSRWQQGNVFSCSVMHEALHNHYTQKSLSLSPG heavy 2: QVQLVQSGAEVKKPGASVKVSCKASGYTFTEFGMNWVRQAPGQGLEWMGWINTKTGEATYVEEFKGRVTFTTDTSTSTAYMELRSLRSDDTAVYYCARWDFAYYVEAMDYWGQGTTVTVSSASTKGPSVFPLAPSSKSTSGGTAALGCLVKDYFPEPVTVSWNSGALTSGVHTFPAVLQSSGLYSLSSVVTVPSSSLGTQTYICNVNHKPSNTKVDKKV[human IgG1 Fc with changes not listed]GGGGSGGGGSGGGGSGGGGSVTLKESGPVLVKPTETLTLTCTVSGFSLSTYSMSWIRQPPGKALEWLGFIGSRGDTYYASWAKGRLTISKDTSKSQVVLTMTNMDPVDTATYYCARERDPYGGGAYPPHLWGRGTLVTVSS heavy 3: QVQLVQSGAEVKKPGASVKVSCKASGYTFTEFGMNWVRQAPGQGLEWMGWINTKTGEATYVEEFKGRVTFTTDTSTSTAYMELRSLRSDDTAVYYCARWDFAYYVEAMDYWGQGTTVTVSSASTKGPSVFPLAPSSKSTSGGTAALGCLVKDYFPEPVTVSWNSGALTSGVHTFPAVLQSSGLYSLSSVVTVPSSSLGTQTYICNVNHKPSNTKVDKKV[human IgG1 Fc with changes not listed] heavy 4: QVQLVQSGAEVKKPGASVKVSCKASGYTFTEFGMNWVRQAPGQGLEWMGWINTKTGEATYVEEFKGRVTFTTDTSTSTAYMELRSLRSDDTAVYYCARWDFAYYVEAMDYWGQGTTVTVSSASTKGPSVFPLAPSSKSTSGGTAALGCLVKDYFPEPVTVSWNSGALTSGVHTFPAVLQSSGLYSLSSVVTVPSSSLGTQTYICNVNHKPSNTKVDKKVEPKSCDKTHTCPPCPAPEAAGGPSVFLFPPKPKDTLMISRTPEVTCVVVDVSHEDPEVKFNWYVDGVEVHNAKTKPREEQYNSTYRVVSVLTVLHQDWLNGKEYKCKVSNKALGAPIEKTISKAKGQPREPQVCTLPPSRDELTKNQVSLSCAVKGFYPSDIAVEWESNGQPENNYKTTPPVLDSDGSFFLVSKLTVDKSRWQQGNVFSCSVMHEALHNHYTQKSLSLSPGGGGGSGGGGSGGGGSGGGGSIQMTQSPSSLSASVGDRVTITCQSSHSVYSDNDLAWYQQKPGKAPKLLIYQASKLASGVPSRFSGSGSGTDFTLTISSLQPEDFATYYCLGGYDDESDTYGFGGGTKVEIK light: DIQMTQSPSSLSASVGDRVTITCKASAAVGTYVAWYQQKPGKAPKLLIYSASYRKRGVPSRFSGSGSGTDFTLTISSLQPEDFATYYCHQYYTYPLFTFGQGTKLEIKRTVAAPSVFIFPPSDEQLKSGTASVVCLLNNFYPREAKVQWKVDNALQSGNSQESVTEQDSKDSTYSLSSTLTLSKADYEKHKVYACEVTHQGLSSPVTKSFNRGEC | 0.7 | –
2 | P1AF0712 + P1AF0713 (mixture of both SPLIT antibodies) (protein) heavy 1: QVQLVQSGAEVKKPGASVKVSCKASGYTFTEFGMNWVRQAPGQGLEWMGWINTKTGEATYVEEFKGRVTFTTDTSTSTAYMELRSLRSDDTAVYYCARWDFAYYVEAMDYWGQGTTVTVSSASTKGPSVFPLAPSSKSTSGGTAALGCLVKDYFPEPVTVSWNSGALTSGVHTFPAVLQSSGLYSLSSVVTVPSSSLGTQTYICNVNHKPSNTKVDKKV[human IgG1 Fc with changes not listed] heavy 2: QVQLVQSGAEVKKPGASVKVSCKASGYTFTEFGMNWVRQAPGQGLEWMGWINTKTGEATYVEEFKGRVTFTTDTSTSTAYMELRSLRSDDTAVYYCARWDFAYYVEAMDYWGQGTTVTVSSASTKGPSVFPLAPSSKSTSGGTAALGCLVKDYFPEPVTVSWNSGALTSGVHTFPAVLQSSGLYSLSSVVTVPSSSLGTQTYICNVNHKPSNTKVDKKVEPKSCDKTHTCPPCPAPEAAGGPSVFLFPPKPKDTLMISRTPEVTCVVVDVSHEDPEVKFNWYVDGVEVHNAKTKPREEQYNSTYRVVSVLTVLHQDWLNGKEYKCKVSNKALGAPIEKTISKAKGQPREPQVCTLPPSRDELTKNQVSLSCAVKGFYPSDIAVEWESNGQPENNYKTTPPVLDSDGSFFLVSKLTVDKSRWQQGNVFSCSVMHEALHNHYTQKSLSLSPGGGGGSGGGGSGGGGSGGGGSQAVVIQESALTTPPGETVTLTCGSSTGAVTASNYANWVQEKPDHLFTGLIGGHNNRPPGVPARFSGSLIGDKAALTIAGTQTEDEAIYFCALWYSDHWVIGGGTKLTVL heavy 3: QVQLVQSGAEVKKPGASVKVSCKASGYTFTEFGMNWVRQAPGQGLEWMGWINTKTGEATYVEEFKGRVTFTTDTSTSTAYMELRSLRSDDTAVYYCARWDFAYYVEAMDYWGQGTTVTVSSASTKGPSVFPLAPSSKSTSGGTAALGCLVKDYFPEPVTVSWNSGALTSGVHTFPAVLQSSGLYSLSSVVTVPSSSLGTQTYICNVNHKPSNTKVDKKVEPKSCDKTHTCPPCPAPEAAGGPSVFLFPPKPKDTLMISRTPEVTCVVVDVSHEDPEVKFNWYVDGVEVHNAKTKPREEQYNSTYRVVSVLTVLHQDWLNGKEYKCKVSNKALGAPIEKTISKAKGQPREPQVCTLPPSRDELTKNQVSLSCAVKGFYPSDIAVEWESNGQPENNYKTTPPVLDSDGSFFLVSKLTVDKSRWQQGNVFSCSVMHEALHNHYTQKSLSLSPG heavy 4: QVQLVQSGAEVKKPGASVKVSCKASGYTFTEFGMNWVRQAPGQGLEWMGWINTKTGEATYVEEFKGRVTFTTDTSTSTAYMELRSLRSDDTAVYYCARWDFAYYVEAMDYWGQGTTVTVSSASTKGPSVFPLAPSSKSTSGGTAALGCLVKDYFPEPVTVSWNSGALTSGVHTFPAVLQSSGLYSLSSVVTVPSSSLGTQTYICNVNHKPSNTKVDKKV[human IgG1 Fc with changes not listed]GGGGSGGGGSGGGGSGGGGSHVKLQESGPGLVQPSQSLSLTCTVSGFSLTDYGVHWVRQSPGKGLEWLGVIWSGGGTAYNTALISRLNIYRDNSKNQVFLEMNSLQAEDTAMYYCARRGSYPYNYFDAWGQGTTVTVSSAST light: DIQMTQSPSSLSASVGDRVTITCKASAAVGTYVAWYQQKPGKAPKLLIYSASYRKRGVPSRFSGSGSGTDFTLTISSLQPEDFATYYCHQYYTYPLFTFGQGTKLEIKRTVAAPSVFIFPPSDEQLKSGTASVVCLLNNFYPREAKVQWKVDNALQSGNSQESVTEQDSKDSTYSLSSTLTLSKADYEKHKVYACEVTHQGLSSPVTKSFNRGEC | – | 0.9
